# Data: the antibiotic and cytotoxicity screens of Wong et al. (2023)
# The list shows a part of the results.
# Legend:
# HSkMC = human skeletal muscle cells; assay: cytotoxicity call (relative viability < 0.9); conditions: 10 µM
# HepG2 = assay: cytotoxicity call (relative viability < 0.9); conditions: 10 µM
# S. aureus RN4220 = assay: growth inhibition call (relative growth <= 0.2); conditions: 50 µM
Compound,cytotoxicity call (HSkMC),cytotoxicity call (HepG2),growth inhibition call (S. aureus RN4220)
CC(C)N1C[C@H](C)[C@@H](CN(C)Cc2ccc(Cl)cc2)Oc2c(NC(=O)c3ccncc3)cccc2C1=O,inactive,inactive,inactive
COc1ccccc1CNC(=O)C[C@@H]1C[C@H]2c3cc(NC(=O)NC4CCCC4)ccc3O[C@H]2[C@H](CO)O1,inactive,inactive,inactive
CCO[C@@H]1OC(C(=O)N2CCN(Cc3ccc4c(c3)OCO4)CC2)=C[C@H](c2ccc3c(c2)OCO3)[C@H]1CCCO,inactive,inactive,inactive
C[C@@H]1CN([C@H](C)CO)C(=O)c2cc(NC(=O)Nc3ccc4c(c3)OCO4)ccc2O[C@@H](C)CCCCO[C@H]1CN(C)C(=O)Cc1ccccc1,inactive,inactive,inactive
O=c1ncccn1[C@@H]1O[C@H](CO)[C@@H](O)[C@H]1O,inactive,inactive,inactive
Cc1nnc(N)s1,inactive,inactive,inactive
CO[C@H]1CN(C)C(=O)c2ccc(NS(=O)(=O)CC(F)(F)F)cc2OC[C@@H](C)N(C(=O)c2ccc3c(c2)OCO3)C[C@@H]1C,inactive,inactive,inactive
Cc1cc(C(F)(F)F)cc(Cl)n1,inactive,inactive,inactive
Cc1ccc(S(=O)(=O)Nc2ccc3c(c2)C(=O)N([C@H](C)CO)C[C@@H](C)[C@H](CN(C)C(=O)Nc2c(C)noc2C)OCCCC[C@@H](C)O3)cc1,inactive,inactive,inactive
C[C@@H]1CCCCO[C@@H](CN(C)Cc2ccccc2)[C@H](C)CN([C@H](C)CO)C(=O)c2cc(NS(=O)(=O)c3cccs3)ccc2O1,inactive,inactive,inactive
C[C@H](CO)N1C[C@H](C)[C@H](CN(C)C(=O)Cc2ccccc2)OCCCC[C@H](C)Oc2ccc(NC(=O)Nc3ccc(C(F)(F)F)cc3)cc2C1=O,inactive,inactive,inactive
O=C(C1=C[C@H](c2csc3ccccc23)C[C@H](OCc2ccc(CO)cc2)O1)N1CCN(Cc2ccccc2)CC1,inactive,inactive,inactive
C[C@@H]1CN([C@H](C)CO)C(=O)c2cc(NS(C)(=O)=O)ccc2O[C@@H]1CN(C)Cc1ccc2c(c1)OCO2,inactive,inactive,inactive
C[C@@H]1CN([C@H](C)CO)C(=O)c2cc(Br)cnc2O[C@@H]1CN(C)S(=O)(=O)c1ccc(F)cc1,inactive,inactive,inactive
C[C@@H]1CN([C@H](C)CO)S(=O)(=O)c2ccc(C#CC(C)(C)O)cc2O[C@@H]1CN(C)Cc1ccc(F)cc1,inactive,inactive,inactive
C[C@@H]1CN([C@H](C)CO)C(=O)c2cc(NC(=O)Cc3ccccc3)ccc2O[C@@H]1CN(C)Cc1ccc(C(=O)Nc2ccccc2N)cc1,inactive,inactive,inactive
C[C@@H]1CN([C@H](C)CO)C(=O)c2cc(NC(=O)Nc3cccc4ccccc34)ccc2O[C@@H]1CN(C)Cc1ccc(Oc2ccccc2)cc1,inactive,active,inactive
C[C@@H]1CN([C@H](C)CO)C(=O)c2cc(NS(=O)(=O)c3cccs3)ccc2O[C@@H](C)CCCCO[C@@H]1CN(C)C(=O)c1ccccc1,inactive,inactive,inactive
C[C@H]1CCCCO[C@@H](CN(C)Cc2ccncc2)[C@@H](C)CN([C@@H](C)CO)C(=O)c2cc(NC(=O)Nc3ccc4c(c3)OCO4)ccc2O1,inactive,inactive,inactive
COc1ccc(NC(=O)Nc2ccc3c(c2)C(=O)N([C@@H](C)CO)C[C@H](C)[C@@H](CN(C)S(=O)(=O)c2ccc(Cl)cc2)OCCCC[C@@H](C)O3)cc1,inactive,inactive,inactive
C[C@H](CO)N1C[C@H](C)[C@H](CN(C)S(=O)(=O)c2ccc(Cl)cc2)Oc2ccc(NS(C)(=O)=O)cc2C1=O,inactive,inactive,inactive
C[C@@H]1CN([C@H](C)CO)C(=O)c2cccc(NC(=O)CCCCCC(=O)Nc3ccccc3N)c2O[C@H]1CN(C)Cc1ccc(Cl)c(Cl)c1,inactive,inactive,inactive
C[C@H]1CCCCO[C@@H](CN(C)S(=O)(=O)c2cn(C)cn2)[C@@H](C)CN([C@@H](C)CO)C(=O)c2cc(NS(=O)(=O)c3cn(C)cn3)ccc2O1,inactive,inactive,inactive
C[C@H]1CN([C@@H](C)CO)C(=O)CCCn2nncc2CO[C@H]1CN(C)C(=O)C1CC1,inactive,inactive,inactive
C[C@H](CO)N1C[C@H](C)[C@H](CN(C)S(=O)(=O)c2ccccc2)Oc2ccc(NS(=O)(=O)c3ccc(F)cc3)cc2C1=O,inactive,inactive,inactive
CCC(=O)N1CCC[C@@H]1C(=O)O,inactive,inactive,inactive
Nc1ccc(Nc2ccccc2)cc1,inactive,inactive,inactive

Compound,cytotoxicity call (HSkMC),cytotoxicity call (HepG2),growth inhibition call (S. aureus RN4220)
Cc1ccc(S(=O)(=O)N2C[C@@H](O)COC[C@H]3O[C@@H](CC(=O)NCc4ccc5c(c4)OCO5)CC[C@@H]32)cc1,inactive,inactive,inactive
O=C(CCNCCO)c1ccccc1,inactive,inactive,inactive
C[C@@H]1CCCCO[C@H](CN(C)C(=O)NC2CCCCC2)[C@H](C)CN([C@@H](C)CO)C(=O)c2cc(NC(=O)Nc3ccccc3)ccc2O1,inactive,inactive,inactive
C[C@H]1CN([C@@H](C)CO)C(=O)Cc2cc(NC(=O)Cn3cnnn3)ccc2O[C@H]1CN(C)C(=O)Nc1ccccc1,inactive,inactive,inactive
O=C1[C@@H]2[C@H](C(=O)N1c1ccccc1)C13COC[C@H](c4ccccc4)N1C(=O)C2(C(=O)NCCc1c[nH]c2ccccc12)O3 (some centres not stated),inactive,inactive,inactive
Cc1noc(C)c1S(=O)(=O)Nc1ccc2c(c1)CC(=O)N([C@@H](C)CO)C[C@H](C)[C@@H](CN(C)S(=O)(=O)c1ccccc1)O2,inactive,inactive,inactive
C[C@H](CO)N1C[C@H](C)[C@@H](CN(C)S(=O)(=O)c2ccccc2)OCCCC[C@H](C)Oc2ccc(NS(=O)(=O)c3cn(C)cn3)cc2C1=O,inactive,inactive,inactive
COc1ccc(NC(=O)N(C)C[C@@H]2Oc3c(NS(C)(=O)=O)cccc3C(=O)N([C@@H](C)CO)C[C@@H]2C)cc1,inactive,inactive,inactive
CC(C)(C)[S@@](=O)N1Cc2cc(C(=O)N[C@H]3CCN(Cc4ccccc4)C3)nc(-c3cccc(-c4ccncc4)c3)c2[C@H]1CCO,inactive,inactive,inactive
CC(CCC(=O)O)C1CCC2C3CCC4CC(O)CCC4(C)C3CCC12C (configuration not stated),inactive,inactive,inactive
C[C@@H]1CN([C@H](C)CO)C(=O)c2cc(NC(=O)Nc3cccc4ccccc34)ccc2O[C@@H](C)CCCCO[C@H]1CN(C)C(=O)NC1CCCCC1,inactive,active,inactive
COCC#Cc1cnc2c(c1)C(=O)N([C@H](C)CO)C[C@H](C)[C@H](CN(C)C(=O)Nc1ccccc1OC)O2,inactive,inactive,inactive
Cc1noc(C)c1NC(=O)N(C)C[C@@H]1OCCCC[C@H](C)Oc2ccc(NC(=O)Nc3ccc(C(F)(F)F)cc3)cc2C(=O)N([C@@H](C)CO)C[C@H]1C,inactive,inactive,inactive
COc1ccc(S(=O)(=O)Nc2ccc3c(c2)CC(=O)N([C@H](C)CO)C[C@H](C)[C@H](CN(C)S(=O)(=O)c2cccs2)O3)cc1,inactive,inactive,inactive
O=C(C[C@@H]1CC[C@H]2[C@@H](COC[C@@H](O)CN2S(=O)(=O)c2ccc(Cl)cc2)O1)N[C@@H]1CCN(Cc2ccccc2)C1,inactive,inactive,inactive
C[C@H](O)C#Cc1cnc2c(c1)C(=O)N([C@H](C)CO)C[C@@H](C)[C@@H](CN(C)C(=O)CN1CCOCC1)O2,inactive,inactive,inactive
NCc1cn2cc(Cl)ccc2n1,inactive,inactive,inactive
O=C(C[C@@H]1C[C@H]2c3cc(NC(=O)C4CCOCC4)ccc3O[C@H]2[C@H](CO)O1)NCc1ccc2c(c1)OCO2,inactive,inactive,inactive
CC1(C)CC[C@]2(C(=O)O[C@@H]3OC[C@@H](O)[C@H](O)[C@H]3O)CC[C@]3(C)C(=CC[C@H]4[C@@]5(C)C[C@@H](O)[C@H](O)[C@@](C)(CO)[C@@H]5[C@H](O)C[C@]43C)[C@@H]2C1,inactive,inactive,inactive
C[C@H](CO)N1C[C@H](C)[C@@H](CN(C)Cc2ccc(Cl)c(Cl)c2)Oc2ccc(NS(=O)(=O)c3cccs3)cc2CC1=O,inactive,inactive,inactive
CCC[C@@H]1C[C@@H](C(=O)N[C@@H]([C@H]2O[C@H](SC)[C@H](O)[C@@H](O)[C@H]2O)[C@@H](C)O)N(C)C1,inactive,inactive,active
Cc1noc(C)c1NC(=O)N(C)C[C@@H]1Oc2ccc(NC(=O)Nc3cccc4ccccc34)cc2C(=O)N([C@H](C)CO)C[C@@H]1C,inactive,inactive,inactive
COc1ccc(S(=O)(=O)Nc2cccc3c2O[C@@H](CN(C)Cc2ccc(Oc4ccccc4)cc2)[C@@H](C)CN([C@@H](C)CO)C3=O)cc1,inactive,inactive,inactive
CC(=O)OC[C@H]1O[C@H](C/C=N/O[C@H](C)c2cn([C@@H]3COC[C@H]3O)nn2)C=C[C@@H]1OC(C)=O,inactive,inactive,inactive
C[C@H](CO)N1C[C@H](C)[C@H](CN(C)S(=O)(=O)c2ccc(Cl)cc2)OCCCC[C@H](C)Oc2ccc(NS(=O)(=O)c3ccc(Cl)cc3)cc2C1=O,inactive,active,inactive
COc1ccc(S(=O)(=O)N(C)C[C@@H]2Oc3c(NS(=O)(=O)c4ccc(F)cc4)cccc3C(=O)N([C@H](C)CO)C[C@@H]2C)cc1,inactive,inactive,inactive
C[C@@H]1CN([C@@H](C)CO)C(=O)c2cccc(NS(=O)(=O)c3cn(C)cn3)c2O[C@H]1CN(C)Cc1ccc(C(=O)O)cc1,inactive,inactive,inactive
